The other results are listed elsewhere or left out. Binding of human antibodies (heavy:light variable regions, tested as scFv in one mRNA-display pool) to influenza hemagglutinin, with or without the stem antibody CR9114 bound first. Score = (mean enrichment − median) / interquartile range of that screen; higher = more enriched, 0 = typical non-binder. Active = above the paper's cut-off per screen: stems 28; unblocked H1 Solomon Islands 5, H1 Michigan 3, H3 5, H5 19, H7 2.85, both B 5; blocked 9, 7, H5 10, H7 10, B Phuket 10, B Lee 11.5. Scores are scaled within each screen and are no affinities; replicates correlate at about 0.6 to 0.9, and antibodies rare in the pool are noisier.
B1: 236-14-IgG-1B03 (protein)
chain 1: QVQLVQSGAEVKKPGASVKVSCKASGYTFADYYIHWVRQAPGQGLEWMGWMNPNTGGTNYAQKFQGRVTMTRDTSIRTAYMELSRLRSDDTAIFYCARDLGDTTTSDYWGQGTLVTVSS
chain 2: SYELTQPPSVSVSPGQTARITCSGDALPQQYASWYQQRPGQAPVLVIYKDTERPSGIPERFSGSTSGTTVTLTISGVQAEDEADYYCQSVDITATFGFGGGTKLTVL
B2: AG9-4B03 (protein)
chain 1: QVQLQESGPGLVKPSETLSLTCADPHSLISSRYYWGWIRQPPGKGLEWIGTIFQSGDTFYNPSLESRVTLFVDTSKNQTSLQLTSVTAADAAVYYCARGLAATGDYYWYALDVWGQGTTVTVSS
chain 2: EIVLTQSPGTLSLSPGERATLSCRASHSISSGYLAWYQHKPGQAPRLVISDTSDRATGIPDRFSGSGSGTDFTLTFSRLEPEDSAVYYCHQYGILPWTFGQGTKVEIK
B3: 31.a.55 (protein)
chain 1: EVQLLESGGGLVKPGGSLRLSCEASEFTFSSHAMSWVRQAPGKGLEWVSAISGNGGSTYYADSVKGRFTISRDNSKNTLYLQMNSLRAEDTALYYCTKDRSPPVFDLMPGYYSSFYYMDVWGKGTTVTVSS
chain 2: EIVMTQSPATLSVSPGERATLSCRASQSVRGNLAWYQQKPGQAPRLLIYGASTRATDIPARFSGSGSGTEFTLTISSLQSEDFAVYYCQQYNHWLRTFGQGTKLEIK
B4: antibody 4D02 (protein)
chain 1: VQLVESGGGLIQPGGSLRLSCAASGFTVSSNYVSWVRQAPGRGLEWVSIIYSDGRTYYADSVKGRFNISRDNSKNTLYLQMNSLRAEDTAVYYCARDFYGDYYNNGMDVWGQGTTVTVSS
chain 2: DIQMTQSPSSLSASVGDRVTITCRAGQSISNYLNWYQQKPGRAPKLLISGASSLQAGVPSRFSGSGSGTDFTLTISSLQREDFATYYCQQSYSIPQTFGQGTKVEIK
B5: FluA-152 (protein)
chain 1: QVTLRESGPALVKPTQTLTLTCTFSGFSLSTSGMCVSWIRQPPGKALEWLARIDWGDDKYYSTSLKTRLTISKDTSKNQVVLRMINMDPVDTATYYCARTHAERLYTSDYYYYAMDVWGQGTTVTVSS
chain 2: DIQMTQSPSSLSASVGDRVTITCRASQSISNYLNWYQQKPGKAPKLLIYVASNLQTGVPSRFSGSGSGTDFSLTISSLQPEDFATYYCQQTYSSLTFGQGTRLAIK
B6: antibody 2E03 (protein)
chain 1: VQLVESGGGLVQPGRSLRLSCAASGFSFYDYAMSWVRQAPGRGLEWVGFIRSYTYGGTTEYAASVRGRFTISRDDSNNIAYLQMNSLKTEDTAVYYCTNLGSSWLNAGLYYYYDMDVWGQGTTVTVSS
chain 2: DIQMTQSPSSLSASVGDRVTITCRASQSIRRYLNWFQQRPGKAPKLLIYEVSNLPTGVPSRFSGSGSGTDFTLTISGLRPEDFATYFCQQNFRTFGPGTKVDIK
B7: C8-B04 (protein)
chain 1: VQLQESGPGLVKPSETLSLTCTVSGGSIGNYYWNWVRQPPGKGLEWIGYVYNNGGTSYNTSLKSRVTISVDTSKKQFSLRLSSVTAADTAMYYCARLGFGEVFSFKRYYYYGLDVWGRGTTVTVSS
chain 2: DIVMTQSPDTLSLSPGERATLSCRASQSVTSSSLAWYQQKVGQSPRLLIYGASTRATGTPARFSGSGSETDFTLTISSLEPEDFAVYYCQQYGSSVLTFGPGTKVDIK
B8: AG4-C01 (protein)
chain 1: VQLQESGPGLVKPSETLSLTCTVSGGSVTSGNYHWSWIRQSPGKGLEWIAYKYYSGNTKYNPSLKSRVTISLDTSKNQISLKMTSVTAEDTAVYYCARVVLYGSGSYMWFDPWGQGTLVTVSS
chain 2: DIQMTQSPSSLSASVGDRVTITCRASQNIITYLHWYQQKPGKAPKLLIYATSSLQSGVPSRFSGSGSGTDFTLTISSLQPEDFATYYCQQSFSTLLTFGGGTKVEIK
B9: 01.ad.01 (protein)
chain 1: EVQLAESGGGLVQPGGSLRLSCAASGFSFHSYAMNWVRQAPGKGLEWVSGTGGSGLSTYYADSVKGRFTISRDNSKNTLYLQMNRLRAEDTAVYYCAKSPSWDKNFYDSGSYYFYFDYWGQGNLVTVSS
chain 2: EIVLTQSPVSLSLSPGERAALSCRASQSLSSRFLAWYQQKPGQAPRLLIHGASSRATGIPDRFSGSGSGTDFTLTISRLEPEDFAVYYCQQYGSAPLTFGGGTKVEMK
B10: K77-2G04 (protein)
chain 1: EVQLVQSGGGVVRPGGSLRLSCAGSGFAFDEYGMTWVRQVPGKGLEWVSNINWHGNSAAYADSVKGRFTISRDNARNSLYLQMNRLRAEDTALYYCARNRQPDTSMDYFYYFGMNVWGQGTTVTVSS
chain 2: DIQMTQSPSSLSASVGDRVTISCQASQDINKYLSWYQQKPGKAPKLLIYDASNLETGVPSRFSGSGSGTEFTLTISSLQPADIATYYCQQYDNVPVTFGRGTNLEIK
B11: 051-09-5D01 (protein)
chain 1: QVQLVESGGGVVQPGRSLRLSCAASGFAFSNYAMHWVRQAPGKGLESVAVVLYDGNSEYYADSVKGRFTISRDTSKNLVYLQMNSLRPEDTAVYYCVKDSEYADYDPVYWGQGTLVTVSS
chain 2: DIQMTQSPSTLSASVGDRVTITCRASHSVSTWLAWYQQKPGKAPKPLIYKASNLESGVPSRFSGSGSGTEFTLTISSLQPDDFATYYCKQYNRYLWTFGQGTKVEIK
B12: antibody 2F04 (protein)
chain 1: EVQLLESGGGLVQPGGSLRLSCAASGFTFSAYSMSWVRQARGKGLEWVSGIGGSGVSIHYADSVKGRFTISRDNSKNTVYLQMNSLRAEDTAVYYCAKSRAWDLKGWFDPWGQGTLVTVSS
chain 2: DIVMTQSPDSLAVSLGERATINCKSSQTVLLNSNNKNSLVWYQQKPGQPPKLLIYWASTRESGVPDRFSGSGSGTDFTLTISSLQVEDVAVYYCQQYYSAPLTFGGGTKVEIK

target: Influenza A H1N1 A/Michigan/45/2015 hemagglutinin ectodomain; experiment: mRNA display binding score; higher = more enriched on the antigen; details: antigen blocked with: 2 µM CR9114 IgG
Description: (§1)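 A pool of natively paired antibodies, displayed as scFv on mRNA, was selected once on antigen-coated beads and sequenced before and after; two replicates.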

Binder	mRNA display binding score
B1	inactive: -0.113
B2	inactive: 0.395
B3	inactive: -0.19
B4	inactive: 0.308
B5	inactive: 0.58
B6	inactive: 0.294
B7	inactive: 0.368
B8	inactive: 1.33
B9	inactive: 0.314
B10	inactive: -0.16
B11	active: 42.7
B12	inactive: 0.403

same assay, conditions: antigen blocked with: nothing

Binder	mRNA display binding score
B1	inactive: -0.598
B2	inactive: -0.242
B3	active: 5.79
B4	inactive: -0.313
B5	inactive: 0.316
B6	inactive: 0.288
B7	inactive: 1.84
B8	inactive: 0.244
B9	inactive: -0.34
B10	inactive: 0.104
B11	inactive: 0.285
B12	inactive: 0.219

target: Influenza A H1N1 A/Solomon Islands/3/2006 hemagglutinin ectodomain; experiment: as above; details: antigen blocked with: 2 µM CR9114 IgG
Description: as §1

Binder	mRNA display binding score
B1	inactive: 0.0692
B2	inactive: 0.0694
B3	inactive: 2.32
B4	inactive: 0.695
B5	inactive: 0.447
B6	inactive: 1
B7	inactive: 0.133
B8	inactive: 0.535
B9	inactive: -0.644
B10	inactive: -0.692
B11	inactive: 1.83
B12	inactive: 0.129

same assay, conditions: antigen blocked with: nothing

Binder	mRNA display binding score
B1	inactive: -0.548
B2	inactive: -0.32
B3	active: 8.95
B4	inactive: -0.559
B5	inactive: 1.57
B6	inactive: -0.144
B7	inactive: 0.788
B8	inactive: -0.435
B9	inactive: 1.19
B10	inactive: 1.22
B11	inactive: 0.906
B12	inactive: -0.244

target: Influenza A H3N2 A/Singapore/INFIMH-16-0019/2016 hemagglutinin ectodomain; experiment: as above; details: antigen blocked with: nothing
Description: as §1

Binder	mRNA display binding score
B1	inactive: -0.517
B2	inactive: -0.203
B3	active: 299
B4	inactive: -0.373
B5	inactive: 1.59
B6	inactive: -0.466
B7	inactive: 1.36
B8	inactive: -0.272
B9	active: 42.6
B10	inactive: 2.39
B11	inactive: -0.366
B12	active: 12.8

target: Influenza A H5N1 A/Qinghai/1A/2005 hemagglutinin ectodomain; experiment: as above; details: antigen blocked with: 2 µM CR9114 IgG
Description: as §1

Binder	mRNA display binding score
B1	inactive: -0.881
B2	inactive: -0.0385
B3	inactive: -0.0549
B4	inactive: -0.321
B5	inactive: 0.683
B6	inactive: 5.81
B7	inactive: 0.28
B8	inactive: 0.929
B9	inactive: -0.712
B10	inactive: -1.16
B11	inactive: 0.503
B12	inactive: 0.426

same assay, conditions: antigen blocked with: nothing

Binder	mRNA display binding score
B1	inactive: -0.521
B2	inactive: -0.178
B3	inactive: 0.516
B4	inactive: -0.202
B5	inactive: 0.781
B6	inactive: 0.546
B7	inactive: 0.661
B8	inactive: -0.406
B9	inactive: 0.189
B10	inactive: 0.587
B11	inactive: 0.0991
B12	inactive: -0.0581

target: Influenza A H7N9 A/Shanghai/2/2013 hemagglutinin ectodomain; experiment: as above; details: antigen blocked with: 2 µM CR9114 IgG
Description: as §1

Binder	mRNA display binding score
B1	inactive: 0.055
B2	inactive: -0.473
B3	inactive: -0.781
B4	inactive: -0.284
B5	inactive: 0.72
B6	inactive: 0.128
B7	inactive: -0.192
B8	inactive: -0.187
B9	inactive: 1.2
B10	inactive: -1.41
B11	inactive: -0.423
B12	inactive: 0.192

same assay, conditions: antigen blocked with: nothing

Binder	mRNA display binding score
B1	inactive: -0.634
B2	inactive: -0.0673
B3	inactive: 1.3
B4	inactive: -0.283
B5	inactive: 1.31
B6	inactive: 0.826
B7	inactive: 1.88
B8	inactive: 0.229
B9	inactive: -0.572
B10	inactive: -0.284
B11	inactive: -0.327
B12	inactive: 0.535

target: Influenza B/Lee/1940 hemagglutinin ectodomain; experiment: as above; details: antigen blocked with: 2 µM CR9114 IgG
Description: as §1

Binder	mRNA display binding score
B1	inactive: 0.443
B2	inactive: -0.554
B3	inactive: -1.27
B4	inactive: -0.174
B5	inactive: 0.464
B6	active: 24.7
B7	inactive: -0.429
B8	inactive: -0.227
B9	inactive: -0.125
B10	inactive: 6.76
B11	inactive: -0.646
B12	inactive: -0.231

same assay, conditions: antigen blocked with: nothing

Binder	mRNA display binding score
B1	inactive: -0.143
B2	inactive: -0.202
B3	inactive: 0.711
B4	inactive: 3.47
B5	inactive: -0.109
B6	active: 11.5
B7	inactive: 0.287
B8	inactive: 0.254
B9	inactive: 0.251
B10	active: 43.1
B11	inactive: 0.69
B12	inactive: 0.00111

target: Influenza B/Phuket/3073/2013 hemagglutinin ectodomain; experiment: as above; details: antigen blocked with: 2 µM CR9114 IgG
Description: as §1

Binder	mRNA display binding score
B1	inactive: -0.463
B2	inactive: -0.235
B3	inactive: 0.681
B4	inactive: 0.252
B5	inactive: 0.874
B6	active: 50
B7	inactive: 0.177
B8	inactive: -0.0611
B9	inactive: -0.0741
B10	inactive: 2.02
B11	inactive: -0.328
B12	inactive: 0.309

same assay, conditions: antigen blocked with: nothing

Binder	mRNA display binding score
B1	inactive: -0.277
B2	inactive: -0.304
B3	inactive: 0.641
B4	active: 5.37
B5	inactive: 0.362
B6	active: 5.64
B7	inactive: 0.252
B8	inactive: 0.207
B9	inactive: -0.235
B10	inactive: 0.832
B11	inactive: -0.261
B12	inactive: 0.0802

Source: the supplement of paper PMC11383711
